Experimental data taken from the supplement of paper PMC6609913.
Counter-ions that a name gives are not always drawn. ± gives the standard deviation of the averaged measurements. Over roughly 1,300 compounds, “normalised cell viability” has its median near 1; the lowest 2% begin near 0.14. This is one part of the list.

Tested on: V-C8 (BRCA2-deficient hamster cells)
Experiment: normalised cell viability (fraction of plate median); higher = more viable cells (less toxic)
Conditions: 5 µM
Outline: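 BRCA2-deficient hamster V-C8 cells and BRCA2-restored V-C8 cells were plated in 96-well plates, and library drugs were added 24 h later at 5 μM in 100 μl medium. Exposure lasted 3 days in screen 1 and 6 days in screen 2, next to solvent-only wells. Viability was then read by resazurin assay, median-plate normalised and averaged across triplicate wells.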

Structure (SMILES)	normalised cell viability (treatment time: 3 days)	normalised cell viability (treatment time: 6 days)
CCC[C@H](N[C@@H](C)C(=O)N1[C@H](C(=O)O)C[C@@H]2CCCC[C@@H]21)C(=O)OCC [Perindopril]	1.16 ± 0.21	1.07 ± 0.06
Nc1ccc(C(=O)NCC(=O)O)cc1 [Aminohippuric acid]	1.11 ± 0.039	1.05 ± 0.03
COc1ccc(NS(=O)(=O)c2ccc(N)cc2)nn1 [Sulfamethoxypyridazine]	0.927 ± 0.06	0.952 ± 0.092
CC1(C)OC(=O)NC1=O [Dimethadione]	1.039 ± 0.0092	0.843 ± 0.14
N=C(N)NCC1COC2(CCCCC2)O1 (stereo not given) [Guanadrel sulfate]	1.09 ± 0.023	1.09 ± 0.065
Nc1ccc(S(=O)(=O)c2ccc(N)cc2)cc1 [Dapsone]	1.12 ± 0.051	1.12 ± 0.042
OC[C@H]1O[C@@H](Oc2ccc(O)cc2)[C@H](O)[C@@H](O)[C@@H]1O [Arbutin]	1.05 ± 0.026	1.03 ± 0.058
OCCN1CCN(CCCN2c3ccccc3Sc3ccc(Cl)cc32)CC1 [Perphenazine]	0.641 ± 0.087	0.74 ± 0.089
CN(C)CCc1c[nH]c2ccc(Cn3cncn3)cc12 [Rizatriptan benzoate]	1.01 ± 0.052	1.097 ± 0.0081
C=C1C[C@H]2[C@@H]3C=C(C)C4=CC(=O)CC[C@]4(C)[C@H]3CC[C@]2(C)[C@@]1(OC(C)=O)C(C)=O [Melengestrol acetate]	0.9761 ± 0.0077	0.964 ± 0.092
CC(=O)Oc1cccc2c1C(=O)c1c(OC(C)=O)cc(C(=O)O)cc1C2=O [Diacerein]	0.698 ± 0.022	0.785 ± 0.036
NC(=O)N/N=C/c1ccc([N+](=O)[O-])o1 [Nitrofural]	0.51 ± 0.015	0.585 ± 0.037
CN1CCCCC1CCN1c2ccccc2Sc2ccc([S+](C)[O-])cc21 (stereo not given) [Mesoridazine besylate]	1.07 ± 0.07	1.07 ± 0.017
CN1CCCC(n2nc(Cc3ccc(Cl)cc3)c3ccccc3c2=O)CC1 (stereo not given) [Azelastine HCl]	0.96 ± 0.058	0.835 ± 0.087
CN(C)CCC[C@@]1(c2ccc(F)cc2)OCc2cc(C#N)ccc21 [Escitalopram]	1.04 ± 0.028	0.843 ± 0.034
CCCC(=O)Nc1ncnc2c1ncn2[C@@H]1O[C@@H]2COP(=O)(O)O[C@H]2[C@H]1OC(=O)CCC [Bucladesine sodium salt]	0.995 ± 0.021	1.04 ± 0.014
CCN1CCN(C(=O)N[C@@H](C(=O)N[C@@H]2C(=O)N3[C@@H]2SC(C)(C)[C@@H]3C(=O)O)c2ccccc2)C(=O)C1=O [Piperacillin sodium salt]	1.1 ± 0.044	1.022 ± 0.0042
CO[C@@H]1[C@@H](OC(N)=O)[C@@H](O)[C@H](Oc2ccc3c(O)c(NC(=O)c4ccc(O)c(CC=C(C)C)c4)c(=O)oc3c2C)OC1(C)C [Novobiocin sodium salt]	0.987 ± 0.029	1.07 ± 0.025

Structure (SMILES)	normalised cell viability (treatment time: 3 days)	normalised cell viability (treatment time: 6 days)
CC(C)(C)NC[C@H](O)COc1nsnc1N1CCOCC1 [Timolol maleate salt]	1.01 ± 0.022	1.07 ± 0.065
O=C(Nc1cccc2c(=O)cc(-c3nnn[nH]3)oc12)c1ccc(OCCCCc2ccccc2)cc1 [Pranlukast]	1.05 ± 0.047	1.07 ± 0.055
NCCCC[C@H](N[C@@H](CCc1ccccc1)C(=O)O)C(=O)N1CCC[C@H]1C(=O)O [Lisinopril]	0.966 ± 0.085	1.11 ± 0.068
COC1=C(OC)C(=O)C(CCCCCCCCCCO)=C(C)C1=O [Idebenone]	0.648 ± 0.036	0.713 ± 0.04
CCOC(=O)[C@H](CCc1ccccc1)N[C@H]1CCc2ccccc2N(CC(=O)O)C1=O [Benazepril HCl]	1.04 ± 0.057	1.105 ± 0.011
CCOC(=O)OC(C)OC(=O)[C@@H]1N2C(=O)[C@@H](NC(=O)[C@H](N)c3ccccc3)[C@H]2SC1(C)C (stereo not given in full) [Bacampicillin hydrochloride]	0.908 ± 0.032	0.986 ± 0.062
CC(=O)c1ccc(S(=O)(=O)NC(=O)NC2CCCCC2)cc1 [Acetohexamide]	1.14 ± 0.11	1.04 ± 0.05
CCCCC[C@H](O)/C=C/[C@@H]1[C@@H](C/C=C\CCCC(=O)O)[C@@H](O)C[C@H]1O [Dinoprost trometamol]	1.05 ± 0.032	1.09 ± 0.012
CCCNC(C)C(=O)Nc1ccccc1C (stereo not given) [Prilocaine hydrochloride]	1.05 ± 0.044	0.985 ± 0.024
COc1ccc(CN(CCN(C)C)c2ccccn2)cc1 [Pyrilamine maleate]	1.05 ± 0.056	1.03 ± 0.06
CC(COc1ccccc1)N(CCCl)Cc1ccccc1 (stereo not given) [Phenoxybenzamine hydrochloride]	1.03 ± 0.071	0.965 ± 0.14
Cc1cc(=O)oc2cc(O)ccc12 [Hymecromone]	1.02 ± 0.046	1.04 ± 0.013
CCOC(=O)c1ccc(OC(=O)CCCCCNC(=N)N)cc1 [Gabexate mesilate]	0.925 ± 0.064	0.978 ± 0.021
CCCN[C@H]1CCc2nc(N)sc2C1 [Pramipexole]	0.957 ± 0.04	0.965 ± 0.031
c1ccc(C2CN3CCSC3=N2)cc1 (stereo not given) [Tetramisole hydrochloride]	1.06 ± 0.055	1.04 ± 0.029
C=C1c2cccc(O)c2C(=O)C2=C(O)[C@]3(O)C(=O)C(C(N)=O)=C(O)[C@@H](N(C)C)[C@@H]3[C@@H](O)[C@H]12 [Methacycline hydrochloride]	0.903 ± 0.013	0.92 ± 0.024
Cn1c(=O)c2nc[nH]c2n(C)c1=O [Theophylline monohydrate]	0.997 ± 0.097	1.03 ± 0.025
